According to the supplement of paper PMC4967469:
The IC50 comes from the fitted curve, where viability falls to half of the control; a limit (>, <) means that the fit lies beyond the doses tested. AUC is the area under the same curve over the 256-fold range up to the top dose, as a fraction; it is 1 without any effect and falls as sensitivity rises. For some of these results: A top dose marked as inferred is not printed in the source and was worked back from the curve model. For some of these results: An entry number marks a drug with two screens in the source, which often give different values.

Tests used:
Experiment in all cases: Viability of human cancer cell lines after 72 h of drug (GDSC screen)
[1] = compound: Cc1ccc(Nc2cc(-c3cccc(N4C(=O)c5ccccc5C4=O)c3)ncn2)cc1NS(C)(=O)=O [KIN001-270]; conditions: top dose 20 µM; top dose inferred
Method: (§1)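 Human cancer cell lines in 384-well plates, medium with 10% serum, drug for 72 h over a 256-fold dose range (nine 2-fold or five 4-fold steps up to the top dose). Adherent lines were fixed and stained with the nucleic acid dye Syto60, suspension lines read with resazurin; signal relative to control wells, capped at 0 and 100%. One two-parameter sigmoid per drug and line, fitted in a mixed model over all curves with the slope shared within a line.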

[2] = compound: CC(C)c1ccccc1Cc1cc(C(=O)Nc2ccc(S(=O)(=O)c3ccccc3C(C)(C)C)cc2)c(O)c(O)c1O [TW-37]; conditions: top dose 5 µM
Method: as §1

[3] = compound: S=C(NCc1ccc2c(c1)OCO2)N1CCN(c2ncnc3c2oc2ccccc23)CC1 [MP470]; conditions: top dose 20 µM; top dose inferred
Method: as §1

[4] = compound: CCNC(=O)c1noc(-c2cc(C(C)C)c(O)cc2O)c1-c1ccc(CN2CCOCC2)cc1 [AUY922]; conditions: top dose 0.256 µM; top dose inferred
Method: as §1

[5] = compound: Cc1cn(-c2cc(NC(=O)c3ccc(C)c(Nc4nccc(-c5cccnc5)n4)c3)cc(C(F)(F)F)c2)cn1 [Nilotinib]; conditions: top dose 2 µM
Method: as §1

[6] = compound: CC(O)(CS(=O)(=O)c1ccc(F)cc1)C(=O)Nc1ccc(C#N)c(C(F)(F)F)c1 [Bicalutamide]; conditions: top dose inferred
Method: as §1

[7] = compound: NC(=O)c1cccc(-c2cc(Nc3ccc(OC(F)(F)F)cc3)ncn2)c1 [GNF-2]; conditions: top dose 1.28 µM; top dose inferred
Method: as §1

[8] = compound: Nc1ccn([C@@H]2O[C@H](CO)[C@@H](O)C2(F)F)c(=O)n1 [Gemcitabine]; conditions: top dose 1.024 µM
Method: as §1

[9] = compound: O=S(=O)(c1ccccc1)N(CC(F)(F)F)c1ccc(C(O)(C(F)(F)F)C(F)(F)F)cc1 [T0901317]; conditions: top dose 10.24 µM; top dose inferred
Method: as §1

[10] = compound: C/C(O)=C(\C#N)C(=O)Nc1cc(Br)ccc1Br [LFM-A13]; conditions: top dose 16 µM; top dose inferred
Method: as §1

[11] = top dose 1.024 µM, screen: GDSC drug entry 150
[12] = top dose 10 µM, screen: GDSC drug entry 1502

| Cell Line | AUC [1] | IC50 [1] [µM] | AUC [2] | IC50 [2] [µM] | AUC [3] | IC50 [3] [µM] | AUC [4] | IC50 [4] [µM] | AUC [5] | IC50 [5] [µM] | AUC [6, 11] | IC50 [6, 11] [µM] | AUC [6, 12] | IC50 [6, 12] [µM] | AUC [7] | IC50 [7] [µM] | AUC [8] | IC50 [8] [µM] | AUC [9] | IC50 [9] [µM] | AUC [10] | IC50 [10] [µM] |
| --- | --- | --- | --- | --- | --- | --- | --- | --- | --- | --- | --- | --- | --- | --- | --- | --- | --- | --- | --- | --- | --- | --- |
| IST-SL1 (small cell lung carcinoma, semi-adherent) | 0.961 | > 20 | 0.569 | 0.484 | 0.967 | > 20 | 0.932 | > 0.256 | 0.986 | > 2 | 0.983 | > 1.02 | 0.982 | > 10 | 0.983 | > 1.28 | 0.587 | 0.112 | 0.958 | > 10.2 | 0.965 | > 16 |
| JJN-3 (haematopoietic neoplasm, suspension) | 0.984 | > 20 | 0.609 | 0.585 | 0.874 | 13.6 | 0.585 | 0.0261 | 0.938 | > 2 | 0.992 | > 1.02 | 0.99 | > 10 | 0.982 | > 1.28 | 0.825 | 0.472 | 0.93 | > 10.2 | 0.99 | > 16 |
| JM1 (B-cell lymphoma, suspension) | 0.939 | > 20 | 0.469 | 0.26 | 0.513 | 1.35 | 0.638 | 0.0363 | 0.99 | > 2 | 0.991 | > 1.02 | 0.985 | > 10 | 0.989 | > 1.28 | 0.04 | < 0.004 | 0.377 | 0.309 | 0.968 | > 16 |
| JSC-1 (B-cell lymphoma, suspension) | 0.904 | > 20 | 0.675 | 0.956 | 0.801 | 9.63 | 0.487 | 0.0148 | 0.987 | > 2 | 0.987 | > 1.02 | 0.985 | > 10 | 0.987 | > 1.28 | 0.058 | < 0.004 | 0.916 | > 10.2 | 0.98 | > 16 |
| JVM-2 (lymphoid neoplasm, suspension) | 0.943 | > 20 | 0.574 | 0.523 | 0.909 | > 20 | 0.866 | > 0.256 | 0.938 | > 2 | 0.981 | > 1.02 | 0.971 | > 10 | 0.982 | > 1.28 | 0.982 | > 1.02 | 0.946 | > 10.2 | 0.973 | > 16 |
| JVM-3 (lymphoid neoplasm, suspension) | 0.984 | > 20 | 0.478 | 0.272 | 0.824 | 12.1 | 0.861 | 0.222 | 0.912 | > 2 | 0.987 | > 1.02 | 0.966 | > 10 | 0.987 | > 1.28 | 0.984 | > 1.02 | 0.967 | > 10.2 | 0.987 | > 16 |
| JiyoyeP-2003 (Burkitt lymphoma, suspension) | 0.953 | > 20 | 0.549 | 0.417 | 0.931 | > 20 | 0.566 | 0.0236 | 0.991 | > 2 | 0.99 | > 1.02 | 0.984 | > 10 | 0.981 | > 1.28 | 0.313 | 0.0206 | 0.962 | > 10.2 | 0.98 | > 16 |
| K5 (thyroid, adherent) | 0.912 | > 20 | 0.749 | 1.56 | 0.985 | > 20 | 0.456 | 0.0122 | 0.986 | > 2 | 0.983 | > 1.02 | 0.941 | > 10 | 0.986 | > 1.28 | 0.732 | 0.284 | 0.988 | > 10.2 | 0.975 | > 16 |
| KARPAS-45 (lymphoblastic leukaemia, suspension) | 0.951 | > 20 | 0.665 | 0.824 | 0.923 | > 20 | 0.575 | 0.0248 | 0.977 | > 2 | 0.991 | > 1.02 | 0.989 | > 10 | 0.991 | > 1.28 | 0.959 | > 1.02 | 0.937 | > 10.2 | 0.958 | > 16 |
| KARPAS-299 (anaplastic large cell lymphoma, suspension) | 0.937 | > 20 | 0.624 | 0.643 | 0.976 | > 20 | 0.889 | 0.207 | 0.979 | > 2 | 0.992 | > 1.02 | 0.981 | > 10 | 0.987 | > 1.28 | 0.501 | 0.0645 | 0.982 | > 10.2 | 0.99 | > 16 |
